# Read counts are not given, so values of variants with three or more changes are uncertain.
# B1: CPEB3 Ribozyme (parent)
# chain: UAACAGGGGGCCACAGCAGAAGCGUUCACGUCGCAGCCCCUGUCAGAUUCUGGUGAAUCUGCGAAUUCUGCUGUAUAUCUC
# Variants of: B1
# Assay: self-cleavage, relative activity (ratio to wild type); higher = more cleavage; in vitro, sequencing
# In short: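 Relative activity was defined as the cleaved/total read fraction for a variant divided by the same fraction for the unmutated ribozyme. CPEB3 self-cleaving ribozyme libraries were made by rounds of error-prone PCR, barcoded, and transcribed in vitro with T7 RNA polymerase for 5 hours at 37°C, and cleavage ran through transcription plus a 15 min DNase I step before EDTA. Illumina sequencing of template-switched reverse transcripts gave the reads, and DNA sequencing mapped the barcodes. Averages come from three batches, using variants with at least 5 reads.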
row,Variant,self-cleavage
1,A3U G9A A18G U26C A45G U51C U60C,0.06
2,A3U G9A A45G A65G,0.08
3,A3U G9A A64U,0.24
4,A3U G9A U25C A64U U76C,0.08
5,A3U G9A U31C U54C,0.39
6,A3U G9C U41C U49A A56G A65G,0.09
7,A3U G9U A20C A56G,0.27
8,A3U G9U A28U U78C,0.06
9,A3U G9U A77G,0.12
10,A3U G9U U41A U51C U60A A77G,0.14
11,A3U G9U U66C,0.24
12,A3U G10A A13G A21G A28G U31C U49C,0.07
13,A3U G10A A13G A47G U54G,0.41
14,A3U G10A A15U C29U A35U C59U U74A,0.05
15,A3U G10A C44A U49A U51A A56C U60C,0
16,A3U G10A U31C C32U A65G,0.05
17,A3U G10U A18G A20U U41A U69C,0.05
18,A3U G10U C17U G24C U31C U74C,0.06
19,A3U G10U G24C U31C,0.26
20,A3U G10U U41C C62G U72G,0.16
21,A3U G16C U31C G33A U54C U69C,0.08

row,Variant,self-cleavage
1,A3U G19U A28G U67A U78C,0.06
2,A3U G19U A35G U51A U69C,0.87
3,A3U G19U G46A U58C U76C,0.08
4,A3U G19U U51A U69C,0.13
5,A3U G22A A47U,0.38
6,A3U G24A A45G,0.59
7,A3U G24A G61A,0.34
8,A3U G24C C44A,0.15
9,A3U G30A U49A A57G U60C A65G U69A,0.05
10,A3U G30C U41C U60C,0.2
11,A3U G33A U49C G55A U66C,0.07
12,A3U G33A U51A A75G U76C,0.16
13,A3U G33U U72A,0.23
14,A3U G36A U58C U69A U72G U78C,0.1
15,A3U G42U A56G A64U,0.34
16,A3U G46A U66C U80C,0.1
17,A3U G46C U67G U74C,0.35
18,A3U G52A U69A,0.59
19,A3U G53C U74A,1.15
20,A3U G55A A57G U67A G73U,0.19
21,A3U G63A A65G U76C,0.68

row,Variant,self-cleavage
1,A3U U25A A35U U60G A65G U69A,0.06
2,A3U U25A C40A,0.66
3,A3U U25C A28G,0.53
4,A3U U25C A35G,0.38
5,A3U U25C A35G A64C,0.19
6,A3U U25C A35G C40U U80C,0.21
7,A3U U25C A35G U51C,0.26
8,A3U U25C A35G U69A,0.07
9,A3U U25C A35G U69G U72G,0.13
10,A3U U25C A45G U74A,0.5
11,A3U U25C G33A,0.48
12,A3U U25C U26C A35U U48C,0.09
13,A3U U25C U26C U41A U69C,0.12
14,A3U U25C U31A G52A A56U,0.1
15,A3U U25C U41A A45G U60C U67A,0.1
16,A3U U25C U41C U48C U60C A75U U76C,0.07
17,A3U U25C U48A U49A U78C,0.35
18,A3U U25C U49C U69A,0.22
19,A3U U25C U58C,0.51
20,A3U U25C U60C,0.07
21,A3U U25C U78C U80C,0.07

row,Variant,self-cleavage
1,A3U U26A G33C U41C U58C,0.09
2,A3U U26A G33U C50G U69A U80A,0.07
3,A3U U26A U41C A45G U48C U60A U67C,0.21
4,A3U U26C A28G U58C U72A,0.08
5,A3U U26C A35U A65G C68A,0.08
6,A3U U26C A56G,0.28
7,A3U U26C A57G,0.28
8,A3U U26C A64G U69C,0.17
9,A3U U26C C32U G61A U69A,0.07
10,A3U U26C U41C,0.65
11,A3U U26C U49C,0.61
12,A3U U26C U58C,0.48
13,A3U U26C U72C,0.21
14,A3U U26C U80A,0.69
15,A3U U26G C40U U54C U74C,0.13
16,A3U U31A A35U U69A,0.23
17,A3U U31C A45G A56G U74C,0.63
18,A3U U31C A45G U78A,0.41
19,A3U U31C A56G U67C C71A,0.15
20,A3U U31C C62U U72A,0.12

# From the RNAGym collection of RNA variant scans (doi:10.1093/nar/gkz1192)
